Measured values: PubChem BioAssay AID360 (National Center for Advancing Translational Sciences (NCATS), 2006)
About 550 (1.1%) of roughly 48,000 compounds were called active. About 4% were inconclusive and are not listed. No stated cut-off is given here; in the data, active means potency below about 15 µM; inconclusive means mostly about 16 µM to 33 µM; inactive means weaker than that. The list shows a part of the results.

Each compound was assayed against Lysosomal acid glucosylceramidase (Homo sapiens) (UniProt P04062) (assay: Glucocerebrosidase). Details: purified enzyme, resorufin glucoside fluorescence (screen aimed at inhibitors), 20 min.
Chain of UniProt P04062 (P04062 whole entry, looked up): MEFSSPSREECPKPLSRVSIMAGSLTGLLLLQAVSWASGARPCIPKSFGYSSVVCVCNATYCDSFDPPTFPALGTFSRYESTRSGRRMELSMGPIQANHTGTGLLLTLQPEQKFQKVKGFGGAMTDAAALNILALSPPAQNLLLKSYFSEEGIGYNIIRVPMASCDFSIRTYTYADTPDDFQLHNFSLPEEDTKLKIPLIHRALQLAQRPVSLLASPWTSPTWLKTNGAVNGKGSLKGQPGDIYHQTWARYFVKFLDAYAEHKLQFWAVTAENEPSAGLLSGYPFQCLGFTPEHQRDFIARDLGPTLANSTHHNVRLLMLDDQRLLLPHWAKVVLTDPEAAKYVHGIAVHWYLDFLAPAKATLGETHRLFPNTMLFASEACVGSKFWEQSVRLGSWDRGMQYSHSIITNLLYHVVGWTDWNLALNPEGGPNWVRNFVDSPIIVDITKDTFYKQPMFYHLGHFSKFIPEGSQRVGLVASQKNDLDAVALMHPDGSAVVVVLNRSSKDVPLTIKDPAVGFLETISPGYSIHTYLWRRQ
Outline: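 Wild-type enzyme at 0.2 nM final in 50mM citric acid/KH2PO4, 10mM sodium taurocholate, 0.01% tween-20, pH 5.9, with resorufin beta-D-glucopyranoside at 30 uM final. Compounds titrated, 20 min at RT, red fluorescence read; AC50 from titration.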
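Further: the screen sought inhibitors.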
Potency means the concentration at half of the fitted maximal effect.

Potency, inactive:
CSc1oc(-c2ccccc2)nc1C(N)=O > 76.9 µM
Cc1cc(OCC(=O)Nn2cnnc2)c(C)cc1Br > 76.9 µM
Cc1nc2c([nH]c3ccc(Br)cc32)s1 > 76.9 µM
COc1ccc(Cl)cc1NC(=O)N1CCN(CCc2ccccc2)CC1 > 76.9 µM
Cc1ccccc1CN1C2=NCCN2c2ccccc21 > 76.9 µM
COc1cccc(OCc2nc3ccccc3c(=O)n2N)c1 > 76.9 µM
CCOc1cc(C)c(C(C)C)cc1S(=O)(=O)N1CC(C)OC(C)C1 (stereo unspecified) > 76.9 µM
CC(=O)NC12CC3CC(C1)CC(C(=O)OCC(=O)NC(=O)c1cccn1C)(C3)C2 > 76.9 µM
CSc1nc2n(n1)C(c1cc(Br)ccc1F)C(C(=O)N(C)C)=C(C)N2 (stereo unspecified) > 76.9 µM
CCOC(=O)c1cc(CC)sc1NC(=O)COC > 76.9 µM
CCOC(=O)Cc1csc(NC(=O)CCc2ccc(S(=O)(=O)N3CCOCC3)cc2)n1 > 76.9 µM
CCc1nnc(NC(=O)CSc2nnc(C)n2CC2CCCO2)s1 (stereo unspecified) > 76.9 µM
Cc1ccc(C(=O)CSc2nnc(CNc3ccc(C)cc3C)n2Cc2ccco2)cc1 > 76.9 µM
O=C(Nc1ccc(N2CCOCC2)cc1N1CCOCC1)c1ccco1 > 76.9 µM
CCS(=O)(=O)N1CCN(C(=O)c2ccc(-c3ccccc3)cc2)CC1 > 76.9 µM
COc1ccc(NC(=O)CSc2nnc(CNC(=O)COc3ccc(Cl)cc3)o2)c(OC)c1 > 76.9 µM
COc1ccc(OC)c(-n2nnnc2SCC(=O)NCc2ccc3c(c2)OCO3)c1 > 76.9 µM
Cc1cc(C)c(NC(=O)CSc2nnc(-c3ccco3)n2N)c(C)c1 > 76.9 µM
COC(=O)[C@H](C)NC(=O)Nc1ccc(Oc2ccccc2)cc1 > 76.9 µM
Cc1cc(NC(=O)CSc2nnc3c(C)cc4ccccc4n23)no1 > 76.9 µM
CCn1c(CNC(=O)c2ccc(OC)c(OC)c2)nnc1SCC(=O)Nc1ccccc1 > 76.9 µM
Cc1cc(C)c2cc(CN(CCO)C(=O)Nc3ccc(Cl)cc3)c(=O)[nH]c2c1 > 76.9 µM
CCS(=O)(=O)N1CCCC(C(=O)NCCCN2CCCC2=O)C1 (stereo unspecified) > 76.9 µM
CCC(=O)N(Cc1cc2cc(C)c(C)cc2[nH]c1=O)C1CCCCC1 > 76.9 µM
Cc1nnc(SCC(=O)Nc2nsc(-c3ccccc3)n2)s1 > 76.9 µM
COc1ccccc1CNC(=O)Cn1nnc(-c2ccncc2)n1 > 76.9 µM
COc1ccc(C2C(=O)N(CCc3ccccc3)CC(=O)N2C2CCCC2)cc1 (stereo unspecified) > 76.9 µM
O=C(Nc1ccccc1)N1CCCCC1c1cccnc1 (stereo unspecified) > 76.9 µM
COc1ccc(NC(=O)C(NS(=O)(=O)c2ccc3c(c2)CCCN3C(C)=O)C(C)C)c(OC)c1 (stereo unspecified) > 76.9 µM
C=CCn1c(C(C)NC(=O)CC)nc2ccccc21 (stereo unspecified) > 76.9 µM
Cc1ccc2cc(CN(Cc3ccccc3)Cc3nnnn3C3CCCC3)c(=O)[nH]c2c1 > 76.9 µM
Cc1cc(NC(=O)Nc2ccc(F)c(Cl)c2)no1
COC(=O)c1c(C)[nH]c(C(C)=O)c1C > 76.9 µM
Clc1ccc(Oc2nc(N3CCOCC3)nc(N3CCOCC3)n2)c(C2CCCCC2)c1 > 76.9 µM
O=C(CCSc1ccc(F)cc1)Nc1ccc(-n2cnnn2)cc1
O=C(CSCCc1ccccn1)Nc1cccnc1 > 76.9 µM
CCOc1ccc(CCNC(=O)C(CC)n2nc(C)n3c(cc4sccc43)c2=O)cc1OCC (stereo unspecified) > 76.9 µM
CC(C)Cn1c(-c2cccs2)nc2nc3ccccc3nc21 > 76.9 µM
COc1ccc(CN2C(=O)CN=C2Nc2ccc(C)cc2C)cc1 > 76.9 µM
CCOc1ccc(N2CCCCn3c2nc2c3c(=O)[nH]c(=O)n2C)cc1 > 76.9 µM
COCCn1c(C)cc(C(=O)CSc2nc3ccccc3c(=O)[nH]2)c1C > 76.9 µM
O=C(CCN1C(=O)C2C3C=CC(C3)C2C1=O)Nc1ccccc1F (stereo unspecified) > 76.9 µM
COc1ccc(S(=O)(=O)N(C)CC(=O)NC2CCCCC2)cc1OC > 76.9 µM
C/C(=C\C(=O)c1ccc(F)cc1)Nc1ccc(N2CCOCC2)cc1 > 76.9 µM
CCOC(=O)N1CCN(C(=O)COc2ccc(S(=O)(=O)NC3CCCCC3)cc2C)CC1 > 76.9 µM
COc1ccc(NC(=O)CSc2nnc(-c3ccccc3C)n2N)cc1OC > 76.9 µM
COC(=O)COc1ccc(S(=O)(=O)Nc2ccccc2SC)cc1 > 76.9 µM
COc1ccccc1Oc1coc2c(CN3CCN(C)CC3)c(O)ccc2c1=O > 76.9 µM
c1ccc(Cn2nnnc2CN2CCN(Cc3ccc4c(c3)OCO4)CC2)cc1 > 76.9 µM
O=C1CC(c2cccc(Oc3ccccc3)c2)NC(=O)N1 (stereo unspecified) > 76.9 µM
Cc1[nH]c2ccccc2c1C(=O)CN1CCN(C2CCCCC2)CC1 > 76.9 µM
OCC1(CO)COC2(CCCC2)N1 > 76.9 µM
COc1ccc(C(=O)OCCNC(=O)c2c(Cl)nc3ccccn23)cc1 > 76.9 µM
Cc1sc2nc(C3CC3)nc(N3CCN(S(=O)(=O)c4ccc(F)cc4)CC3)c2c1C > 76.9 µM
O=C(O)c1ccc(Cl)c(S(=O)(=O)NCc2ccco2)c1 > 76.9 µM
O=c1oc2c(CN3CCOCC3)c(O)c(Cl)cc2c2c1CCC2 > 76.9 µM
Cc1cc(C(=O)Nc2ccc(C(=O)O)cc2)c(-c2ccccc2)o1 > 76.9 µM
COC(=O)CNc1c(-c2ccccn2)nc2ccc(Br)cn12 > 76.9 µM
COc1cc2[nH]c(=O)n(CCC(=O)N3CCc4ccccc4C3)c(=O)c2cc1OC > 76.9 µM
COc1ccc(CSc2nc(N3CCOCC3)c3c(c2C#N)CC(C)(C)OC3)cc1 > 76.9 µM
O=C(C1CC1)N1CCC(c2nc(-c3ccc(S(=O)(=O)NCC4CCCO4)cc3)no2)CC1 (stereo unspecified) > 76.9 µM
Cc1cc(C)cc(OCc2nnc(SCC(=O)c3ccc(Br)cc3)o2)c1 > 76.9 µM
Cc1nnc(SCCCn2c(N3CCCCC3)nc3c2c(=O)[nH]c(=O)n3C)s1 > 76.9 µM
CC1=NOC2(C1)/C(=N/O)CCC/C2=N\O (stereo unspecified) > 76.9 µM
COc1ccc(C(=O)Nc2ccccc2NC(=O)c2ccco2)cc1OC > 76.9 µM
Cc1c(C(=O)OCC(=O)N2CC(C)OC(C)C2)oc2ccc(Br)cc12 (stereo unspecified) > 76.9 µM
COC(=O)c1cc(NC(=O)CC2NCCNC2=O)cc(C(=O)OC)c1 (stereo unspecified) > 76.9 µM
CC(C)Cn1c(N)c(C(=O)NCc2cccs2)c2nc3ccccc3nc21 > 76.9 µM
COc1cc(C)nc(NCc2ccccc2)n1 > 76.9 µM
Cc1ccc(-n2ncc3c(NCc4ccccc4)ncnc32)cc1 > 76.9 µM
O=C(COc1ccc(Cl)cc1)NCc1nnc(SCC(=O)N2CCCCC2)o1 > 76.9 µM
COC(=O)C1=C(CSc2nncn2C)NC(=O)NC1c1cc(C)ccc1C (stereo unspecified) > 76.9 µM
Cc1nnc(NC2=NCCC2)s1 > 76.9 µM
COc1cc(N=c2ssnc2Cl)cc(OC)c1OC > 76.9 µM
S=C(NCC1CCCO1)n1nnc2ccccc21 (stereo unspecified) > 76.9 µM
Nc1nc(C(=O)N2CCOCC2)nn1S(=O)(=O)c1ccccc1 > 76.9 µM
NCCc1nnc(SCc2c(F)cccc2Cl)o1
O=C(CCC1COc2ccccc2O1)NCc1ccco1 (stereo unspecified) > 76.9 µM
CCCOc1ccccc1C1C(C(=O)OC)=CN(C(C)C)C=C1C(=O)OC > 76.9 µM
COc1ccc(C2C(C#N)=C(N)Oc3c2oc(CO)cc3=O)c(OC)c1OC (stereo unspecified) > 76.9 µM
CC1CCN(C(=O)c2ccc(NC(=O)C3CCCO3)cc2)CC1 (stereo unspecified) > 76.9 µM
O=S(=O)(NCC1CCCO1)c1ccc(Oc2ccccc2)cc1 (stereo unspecified) > 76.9 µM
CCOC(=O)c1c(C)n(C)c2ccc(OC(C)C(=O)OC)cc12 (stereo unspecified) > 76.9 µM
CC1=C(C(=O)OC(C)C)C(c2cccc(F)c2)N2C(=O)C(C)SC2=N1 (stereo unspecified) > 76.9 µM
CCCn1c(SCC(=O)c2ccc3c(c2)OCCO3)nnc1C(C)C > 76.9 µM
CCCn1c(SCC(N)=O)nnc1-c1ccco1 > 76.9 µM
COC(=O)c1ccc(C(=O)OC)c(NC(=O)CCc2ccc(C)o2)c1 > 76.9 µM
CN(C)C(=O)CSc1nnc([C@H](Cc2c[nH]c3ccccc23)NC(=O)OC(C)(C)C)o1 > 76.9 µM
CC(C)(C)n1cnc2cc(NS(=O)(=O)c3ccccc3)ccc21 > 76.9 µM
CN(Cc1ccccc1)c1nc2c(c(=O)[nH]c(=O)n2C)n1Cc1ccccc1 > 76.9 µM
COc1ccccc1NC(=O)N(Cc1cc2cc(OC)c(OC)cc2[nH]c1=O)CC1CCCO1 (stereo unspecified) > 76.9 µM
